Here are results for one molecule from patent US12129305B2, “Targeting CLPTM1L for treatment and prevention of cancer” (The Medical College of Wisconsin, Inc., priority 2018, dated 2024).

Experiment [1] relates to platinum-resistant A2780 human ovarian tumor cells. Nature of the experiment: carboplatin apoptotic killing (casp 3/7 live imaging). It counts as cell-based. The conditions noted are these: 10 μM carboplatin; synergistic by ANOVA. Here is the method: (A) A2780 apoptotic killing (casp 3/7 live imaging) after 36 hour mAb treatment (scFv clones 102-4a left, 102-5a right) and 24-hour carboplatin treatment. (B) Dose-response to up to 20 μM carboplatin in resistant A2780 cells treated with either control IgG1 or 102-5, relative to 0 carboplatin controls. (C) Kinetic killing assay (live imaging) in A2780 with human anti-CLP™1L scFv and/or 10 μM carboplatin treatment. *p<0.05, **p<0.005, ***p<0.0005. (D) Western blotting and densitometry for Akt and phospho-Akt (T308) in A2780 andA2780cis. (E) Cisplatin viability (MTT) inhibition curves for SL3 sensitive (parental) and resistant (SL3cis) tumor spheroids, pAkt (T308) and total Akt western blots on SL3 and SL3cis spheroid lysates (inset). […]
Cells were plated on 24-well tissue culture plates at equal density (˜80) confluence and allowed to attach overnight before treatment as indicated in at least triplicate. […] Confluence and fluorescent dead cell counts per well were monitored at 3 hour intervals using an Incucyte FLR live cell imager and software (Essen Biosciences, Ann Arbor, MI). Student's T-test determined significance of differences between groups, and ANOVA determined significance of interaction between treatments. […]

The test system of experiment [2] is Akt phosphorylation at threonine 308 in Panc1. Nature of the experiment: Western blotting of Panc1 lysates for phospho-Akt (T308). It counts as cell-based, human. The conditions noted are these: regardless of the presence of the ectodomain. Here is the method:
(A) Western blotting of whole-cell, apoptotic bodies, extracellular vesicles, and microvesicles isolated from Panc1 cells treated with vehicle control or 200 nM gemcitabine. (B) Relative killing (live imaging cytotoxicity) of Panc1 cells treated for 48 hours with −40 nM gemcitabine and culture supernatants from donor cells with vector control or overexpressing CLPTM1L. […]
Cells were lysed with 100 μL of 1× NP40 lysis buffer containing proteinase inhibitors, sheared 10 times with a 28-gauge needle, spun at 16,000×g for 30 minutes, normalized by protein concentration as determined by the Bradford method, and the supernatant boiled for 5 minutes. Twenty microliters of normalized lysate were resolved by SDS-PAGE on 10% acrylamide gels at 150 volts for 1 hour, transferred by iBlot dry transfer (Life Technologies), blocked for 2 hours with TBST 10% milk, incubated with primary antibodies at 1:1000 in TBST 5% milk at 4C overnight with rocking, washed 3×5 minutes with TBST, incubated with secondary anti-rabbit-HRP (Santa Cruz Biotechnology) or goat anti-human-HRP (Invitrogen MH1715) at 1:10,000 in TBST 5% milk for 2 hours with rocking, washed 5×10 minutes with TBST, and signal analyzed using a Biorad Chemidoc XRS. […] Quantitation of Western analyses of three independent cultures was done using Image J software (24).

Experiment [3] has as its system Akt phosphorylation at threonine 308 in A2780 and A2780-cis. As to the kind of experiment: Western blotting for Akt and phospho-Akt (T308). It counts as cell-based, human. The protocol: (A) A2780 apoptotic killing (casp 3/7 live imaging) after 36 hour mAb treatment (scFv clones 102-4a left, 102-5a right) and 24-hour carboplatin treatment. (B) Dose-response to up to 20 μM carboplatin in resistant A2780 cells treated with either control IgG1 or 102-5, relative to 0 carboplatin controls. (C) Kinetic killing assay (live imaging) in A2780 with human anti-CLP™1L scFv and/or 10 μM carboplatin treatment. *p<0.05, **p<0.005, ***p<0.0005. (D) Western blotting and densitometry for Akt and phospho-Akt (T308) in A2780 andA2780cis. […]
Cells were lysed with 100 μL of 1× NP40 lysis buffer containing proteinase inhibitors, sheared 10 times with a 28-gauge needle, spun at 16,000×g for 30 minutes, normalized by protein concentration as determined by the Bradford method, and the supernatant boiled for 5 minutes. Twenty microliters of normalized lysate were resolved by SDS-PAGE on 10% acrylamide gels at 150 volts for 1 hour, transferred by iBlot dry transfer (Life Technologies), blocked for 2 hours with TBST 10% milk, incubated with primary antibodies at 1:1000 in TBST 5% milk at 4C overnight with rocking, washed 3×5 minutes with TBST, incubated with secondary anti-rabbit-HRP (Santa Cruz Biotechnology) or goat anti-human-HRP (Invitrogen MH1715) at 1:10,000 in TBST 5% milk for 2 hours with rocking, washed 5×10 minutes with TBST, and signal analyzed using a Biorad Chemidoc XRS. […]

In the next experiment the test system is ID8-luc cells. As to the kind of experiment: viability of ID8-luc cells in vitro. It is filed as cell-based, mouse. The protocol:
(A) Flow cytometry histograms of fluorescent labeling of live ID8-luc cells with 102-5 anti-CLPTM1L primary and Alexafluor-488-conjugated secondary antibodies. (B) Viability of ID8-luc cells treated with 100 nM 102-5 anti-CLPTM1L and/or 40 μM carboplatin for 5 days. (C) Relative tumor burden as measured by luciferin luminescence live animal imaging of control vs. 10 mg/kg 102-5 anti-CLPTM1L treated ID8-luc isograft groups (left) and individual animals (right). (D) Relative tumor burden as measured by luciferin luminescence live animal imaging of 10 mg/kg carboplatin plus either control or 102-5 anti-CLPTM1L (10 mg/kg) treated groups (left) and individual animals (right). (E) Final relative mean volumes of SL3 and SL3cis xenograft tumors 24 days post-inoculation. Mice were treated with 5 mg/kg 102-5 and/or 2.5 mg/kg cisplatin I. P. weekly. […]
With disseminated peritoneal disease being the most common presentation upon recurrence of ovarian carcinoma, we utilized an orthotopic isograft model of disseminated peritoneal ovarian cancer. Human anti-CLPTM1L binding to luciferase-expressing ID8 ovarian tumor cells (ID8-luc) was detected by flow cytometry (FIG. 31A). […] Tumor load was monitored by luciferin luminescence using whole body imaging. […]

B1: 102-5: Human anti-CRR9/CLPTM1L IgG1; heavy chain V SEQ ID NO:30, light chain V SEQ ID NO:31 (antibody, V domains shown)
VH: EVQLLESGGGLVQPGGSLRLSCAASGFSFSSYEMNWVRQAPGKGPEWISYISSGGGTIYYADSVRGRFTISRDNSNNTLYLQMNSLRPDDTAIYYCARDRGRKWLQLLFDSWGQGTLVTVSS
VL: QAVLTQPPSASGTPGQKVTISCSGSSSNIGSNTVNWYQQLPGTAPKLLIYTNNQRPSGVPDRFSGSKSGASASLAISGLQSKDEADYYCAAWDDSLNGWVFGGGTKLTVLG
modifications: Synthetic- Anti-CRR9/CLPTM1L clone 102-5 heavy chain V; Synthetic- Anti-CRR9/CLPTM1L clone 102-5 light chain V
Consider B1, for which the “apoptotic killing response to carboplatin” value in experiment [1] is recorded as “increased the apoptotic killing response of 10 μM carboplatin”. Besides, the “Akt phosphorylation at threonine 308” value in experiment [2] and in experiment [3] was “decreased Akt phosphorylation at threonine 308” throughout. Besides, the viability entry in the experiment on ID8-luc cells (100 nM 102-5, 5 days, ANOVA p<0.0001) was “decreased viability”. Further, the carboplatin killing result in the experiment with ID8-luc cells (100 nM 102-5 and 40 μM carboplatin, 5 days, ANOVA p<0.05) is on record as “increased carboplatin killing”.
